According to PubChem BioAssay AID504845 (National Center for Advancing Translational Sciences (NCATS), 2011):
In all, about 390,000 compounds went through this assay and about 150 (0.038%) were called active. The shares of active, inactive and inconclusive entries below differ from those in the screen. Calls come from the whole dose curve; as a rule, active = well fitted inhibition curve with a large enough effect; inconclusive = small, poorly fitted or top-dose-only effect; inactive = no such curve, though single readings can be large or run the other way. Potencies of inconclusive entries are doubtful fits and often do not repeat.

Target: Regulator of G-protein signaling 4 (Homo sapiens) (UniProt P49798)
Assay: Inhibitors of Regulator of G Protein Signaling (RGS) 4: qHTS; note: nearly all actives have a fitted effect of over 75% in size
Details: Transcreener GDP fluorescence polarization, RGS4-accelerated GTP hydrolysis; series mostly up to 114 µM
Method in brief: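 MLSMR compounds (23 nl, pin-transferred) preincubated 10 min at room temperature with a 500nM (2x) first reagent, then RGS4 at 900nM (2x) plus Transcreener GDP mix added; fluorescence polarization (620/688 nm) read before and after 90 min at 30 °C.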
Potency is the fitted concentration of half-maximal effect; tags give direction and shape of the fitted curve.

Chain of UniProt P49798 (P49798 whole entry, looked up): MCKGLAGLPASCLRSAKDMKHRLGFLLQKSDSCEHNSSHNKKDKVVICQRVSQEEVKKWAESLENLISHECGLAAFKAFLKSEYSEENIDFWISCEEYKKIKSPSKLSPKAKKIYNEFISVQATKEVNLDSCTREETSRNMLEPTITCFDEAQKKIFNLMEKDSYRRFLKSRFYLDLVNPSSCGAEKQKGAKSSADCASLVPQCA

Structure (SMILES) | Potency
COc1ccc(C2CC(c3ccccc3)Oc3ccc(OC)cc32)cc1 (configuration not stated) | inactive
COc1ccccc1Cn1c(CNS(=O)(=O)c2ccc(C(C)C)cc2)nc2cccnc21 | inconclusive: 89.1 µM [inhibitor, single point]
Cc1ccc2[nH]c(=O)c(CN(C)C(=O)c3cccs3)cc2c1 | inconclusive: 28.2 µM [inhibitor, full curve, poor fit]
Cc1cccc(N=C2NC(=O)/C(=C3/C(=O)N(C)c4ccccc43)S2)c1C | inactive
Cc1c(Cl)cnc(NC(=O)COC(=O)c2ccc([N+](=O)[O-])s2)c1Cl | inconclusive: 70.8 µM [inhibitor, partial curve, poor fit]
Nc1ccc2ccc(O)cc2c1 | inactive
Cc1cccc(/C=C(\C#N)c2nc3ccccc3c(=O)[nH]2)c1 | inactive
CCCC(=O)Nc1nc(C)c(-c2csc(Nc3ccccc3OC)n2)s1 | inconclusive: 17.8 µM [inhibitor, full curve, poor fit]
CC(=O)n1nc(-c2ccc(Cl)cc2)nc1NCc1ccco1 | inconclusive: 70.8 µM [inhibitor, single point]
Cn1c(=O)c2[nH]c(Cc3cccc4ccccc34)nc2n(C)c1=O | inactive
O=C(O)CN1C(=O)/C(=C\c2cc(Br)ccc2OCc2ccccc2Cl)SC1=S | inconclusive: 44.7 µM [inhibitor, partial curve, poor fit]
CCOC(=O)Cc1csc(NC(=O)Cn2cnc3c2c(=O)n(C)c(=O)n3C)n1 | inconclusive: 39.8 µM [inhibitor, partial curve, poor fit]
CCCCN1C2CCCC1CC(NC(=O)c1cccc(Cl)c1)C2 (configuration not stated) | inactive
COCCN(C(=O)CCCc1nc2ccccc2s1)c1c(N)n(CC(C)C)c(=O)[nH]c1=O | inconclusive: 44.7 µM [inhibitor, partial curve, poor fit]
CC(C)(C)C1CCC(=O)N(CCSc2ccccc2)CC1 (configuration not stated) | inactive
N#Cc1c(N)nc(SCc2ccncc2)c(C#N)c1-c1cccs1 | inactive
CCOC(=O)CN1NC2(CCC(C(C)(C)C)CC2)NC1=S (configuration not stated) | inconclusive: 39.8 µM [inhibitor, partial curve, poor fit]
Cc1cc(C)n2nc(CC#N)c(C#N)c2n1 | inconclusive: 79.4 µM [inhibitor, single point]
O=C(O)c1cccc(S(=O)(=O)Nc2ccc(-c3ccccc3)cc2)c1 | inactive
O=C1C2C3C=CC([C@@H]2C(=O)N1c1nccs1)C31CC1 (some centres not stated) | inactive
Cc1ccc2nsnc2c1S(=O)(=O)N(Cc1ccco1)Cc1cc2cccc(C)c2[nH]c1=O | inactive
CC1=C(c2ccc(Cl)cc2)S(=O)(=O)NC1=NCCCN1CCN(c2cc(C)ccc2C)CC1 | inactive
N#CC(C#N)=CN=c1ccn(Cc2ccc(Cl)cc2Cl)cc1 | inconclusive: 50.1 µM [inhibitor, partial curve, poor fit]

Structure (SMILES) | Potency
O=C(/C(=C/c1ccc(Cl)cc1)c1nc2ccccc2[nH]1)c1ccccc1 | inactive
CCCc1[nH]nc2c1C(c1ccccc1OCC)C(C#N)=C(N)O2 (configuration not stated) | inconclusive: 28.2 µM [inhibitor, full curve, poor fit]
CCOC(=O)c1cc(CC)sc1N1C(=O)CC(Sc2ccccc2C(=O)O)C1=O (configuration not stated) | inconclusive: 89.1 µM [inhibitor, single point]
O=C(C=C=Nc1ccccc1)C(=O)N=C=Cc1ccccc1 | inactive
CS(=O)(=O)c1ccc(S(=O)CC(=O)OCc2ccccc2)c([N+](=O)[O-])c1 (configuration not stated) | inconclusive: 17.8 µM [inhibitor, full curve, poor fit]
Cc1ccc(S(=O)(=O)Nc2ccc(S(=O)(=O)N3CCOCC3)cc2)cc1 | inconclusive: 100 µM [inhibitor, single point]
Cc1sc(NC(=O)CCC(=O)O)c(C(N)=O)c1-c1ccccc1 | inconclusive: 17.8 µM [inhibitor, full curve, poor fit]
CCOC(=O)C1=C(c2ccccc2)NC(=S)NC1c1ccc(C)c([N+](=O)[O-])c1 (configuration not stated) | inconclusive: 35.5 µM [inhibitor, partial curve, poor fit]
Cc1ccccc1CSc1ncc(C#N)c(N)n1 | inconclusive: 70.8 µM [inhibitor, partial curve, poor fit]
COc1ccccc1N1CCN(Cc2ccc(C(=O)O)cc2)CC1 | inconclusive: 89.1 µM [inhibitor, single point]
COc1ccc(NC(=O)O/N=C2/CCCc3ccc(OC)cc32)cc1 | inconclusive: 44.7 µM [inhibitor, partial curve, poor fit]
CSc1ccc(C(=S)N2CCN(C)CC2)cc1 | inconclusive: 31.6 µM [inhibitor, partial curve, poor fit]
C/C(=N\NC(=O)c1ccncc1)c1ccc(N(C)C)cc1 | inconclusive: 50.1 µM [inhibitor, partial curve, poor fit]
CC(=O)c1cccc(NC(=O)c2ccc3c(c2)OCO3)c1 | inconclusive: 44.7 µM [inhibitor, partial curve, poor fit]
COc1cccc(OCc2nc3ccccc3n2CCOc2ccc(C)cc2)c1 | inactive
COc1ccc(CC(=O)NCC2CCCN(Cc3cccc(C(F)(F)F)c3)C2)cc1 (configuration not stated) | inconclusive: 100 µM [inhibitor, partial curve, poor fit]
O=C(CSc1nnc(CNc2ccc(F)cc2)n1Cc1ccco1)NC1CC1 | inconclusive: 79.4 µM [inhibitor, partial curve, poor fit]
COc1cccc(-c2nnc(SCC(=O)N3CCOCC3)o2)c1 | inconclusive: 20 µM [inhibitor, full curve, poor fit]
CCc1ccccc1NC(=O)Cn1nc(C(F)(F)F)cc1C1CC1 | inactive
COc1ccc(Nc2nc3ccccc3nc2NS(=O)(=O)c2cccs2)cc1 | inactive
CCOC(=O)c1c(NC(=O)c2cc(C(C)C)on2)sc(C(C)=O)c1C | inconclusive: 50.1 µM [inhibitor, partial curve, poor fit]
CC1CC(C)CN(CCCNC(=O)c2cn(C)c3ccc(S(=O)(=O)N4CCCC4)cc3c2=O)C1 (configuration not stated) | inactive
CCOc1ccc(-n2c(N)c(C(=O)NCc3ccco3)c3nc4ccccc4nc32)cc1 | inconclusive: 28.2 µM [inhibitor, full curve, poor fit]

Structure (SMILES) | Potency
CCOc1ccccc1NC(=O)NCc1ccc2c(c1)CCN2C(=O)c1ccccc1 | inactive
CC(/C=N/NC(=O)c1cc(-c2ccncc2)nc2ccccc12)=C\c1ccco1 | inconclusive: 35.5 µM [inhibitor, full curve, poor fit]
Cc1cc(C(=O)Nc2ccc(Nc3ccccc3)cc2)ccc1[N+](=O)[O-] | inconclusive: 35.5 µM [inhibitor, full curve, poor fit]
CCCOc1ccc(/C=N/NC(=O)c2ccc(Cn3cc([N+](=O)[O-])cn3)o2)cc1 | inconclusive: 50.1 µM [inhibitor, partial curve, poor fit]
Cc1ccc(Sc2c(C)nn(-c3ccccc3)c2OC(=O)C(C)(C)C)cc1 | inconclusive: 56.2 µM [inhibitor, partial curve, poor fit]
COc1ccc(OC)c(NS(=O)(=O)c2cc3c(cc2Cl)N(C(C)=O)CCO3)c1 | inactive
O=C(CCNC(=O)c1ccc(Br)cc1)Nc1ccc(S(=O)(=O)N2CCCCC2)cc1 | inconclusive: 89.1 µM [inhibitor, single point]
Cc1cc2nnc(SCc3ccc(F)cc3)n2c2ccccc12 | inactive
Cc1ccc(NC(=S)NNC(=O)c2ccc(N3CCOCC3)c([N+](=O)[O-])c2)cc1C | inconclusive: 100 µM [inhibitor, partial curve, poor fit]
Cc1ccc(-c2c(C#N)c(N)n3c(nc4ccccc43)c2C#N)cc1 | inconclusive: 79.4 µM [inhibitor, partial curve, poor fit]
Cc1ccc2oc3c(c(=O)c2c1)C(c1ccc(O)cc1)N(Cc1ccc2c(c1)OCO2)C3=O (configuration not stated) | inactive
Cc1ccc(-n2c(C3CC3c3ccc(Cl)cc3)n[nH]c2=S)cc1 (configuration not stated) | inconclusive: 89.1 µM [inhibitor, single point]
COc1cc(NS(=O)(=O)c2ccc(NC(=S)NC(=O)/C=C/c3ccco3)cc2)ncn1 | inactive
O=S(=O)(c1ccc(NC(=S)N2CCN(c3ccccc3F)CC2)cc1)N1CCOCC1 | inconclusive: 70.8 µM [inhibitor, partial curve, poor fit]
O=C(NCC1CCCO1)C(=O)N/N=C/c1ccc(OCc2ccccc2Cl)cc1 (configuration not stated) | inconclusive: 79.4 µM [inhibitor, single point]
COc1ccc(/C=C2\Sc3ccc(C(=O)NCc4cccnc4)cc3N(C)C2=O)cc1OC | inconclusive: 17.8 µM [inhibitor, full curve, poor fit]
O=C(Nc1ccc(C(F)(F)F)cc1)c1ccccc1 | inactive
COCCNC(=S)N=Nc1c(O)[nH]c2c(C)cc(C)cc12 | inconclusive: 10 µM [inhibitor, full curve, poor fit]
Cc1ccc(C(=O)c2cc([N+](=O)[O-])ccc2N2CC(C)OC(C)C2)cc1 (configuration not stated) | inconclusive: 50.1 µM [inhibitor, partial curve, poor fit]
Nc1nc(-c2c[nH]c3ccccc23)cs1 | inconclusive: 50.1 µM [inhibitor, partial curve, poor fit]
Nc1ccccc1SSc1ccccc1N | inconclusive: 25.1 µM [inhibitor, full curve, poor fit]
